Experimental data as given in the supplement of paper PMC10441789.
Some of the results follow. Antibody binding of pooled human sera (four to six donors per pool; dilution not stated) to peptides of the Trypanosoma cruzi antigen TSSA on microarrays. Quantile-normalised fluorescence in arbitrary units, mean of duplicate arrays; higher = more binding. No active / inactive call. The uninfected pools are read here as the healthy donors of the same country. The strongest signals lie near the top of the scale (about 60,000).

Key:
Test in all cases: antibody binding signal (normalised fluorescence) (arbitrary fluorescence units); higher = stronger serum antibody binding to peptide
[1] = tested on: pooled sera of chronic Chagas disease patients, Bolivia
Experimental: (§1)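 Microarray of 15-residue peptides over residues 30-55 of Trypanosoma cruzi TSSAII, each with 1 to 10 substitutions at naturally variable positions, probed with one serum pool per country.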

[2] = tested on: pooled sera of chronic Chagas disease patients, Brazil
Experimental: as §1

[3] = tested on: pooled sera of chronic Chagas disease patients, Colombia
Experimental: as §1

[4] = tested on: pooled sera of chronic Chagas disease patients, Mexico
Experimental: as §1

[5] = tested on: pooled sera of chronic Chagas disease patients, USA
Experimental: as §1

[6] = tested on: pooled sera of uninfected people, Argentina
Experimental: as §1

[7] = tested on: pooled sera of uninfected people, Bolivia
Experimental: as §1

[8] = tested on: pooled sera of uninfected people, Brazil
Experimental: as §1

[9] = tested on: pooled sera of uninfected people, Colombia
Experimental: as §1

[10] = tested on: pooled sera of uninfected people, Mexico
Experimental: as §1

[11] = tested on: pooled sera of uninfected people, USA
Experimental: as §1

Row | Sequence | antibody binding signal [1] | antibody binding signal [2] | antibody binding signal [3] | antibody binding signal [4] | antibody binding signal [5] | antibody binding signal [6] | antibody binding signal [7] | antibody binding signal [8] | antibody binding signal [9] | antibody binding signal [10] | antibody binding signal [11]
1 | TENKAAAGGTPSQSG | 243 | 276 | 3030 | 413 | 1150 | 166 | 158 | 1620 | 283 | 228 | 157
2 | SGKDKKPATGGAPSP | 484 | 781 | 945 | 871 | 1630 | 259 | 321 | 105 | 248 | 111 | 99.9
3 | KEKKAATGGAPSQPG | 218 | 1140 | 265 | 1240 | 454 | 217 | 141 | 134 | 295 | 106 | 127
4 | PPSGKEKKAATGGTP | 326 | 1380 | 1570 | 4440 | 2990 | 303 | 211 | 187 | 298 | 79.4 | 122
5 | KENKPATGGTPSQSG | 303 | 1290 | 369 | 631 | 384 | 381 | 353 | 181 | 120 | 148 | 147
6 | GTDNKPAAGGAPSQP | 2260 | 43800 | 2250 | 350 | 734 | 224 | 678 | 489 | 230 | 501 | 162
7 | PSGKENKAAAGGAPS | 1770 | 12100 | 14300 | 11400 | 9500 | 5400 | 1630 | 115 | 514 | 218 | 164
8 | PSGKENKAATGGAPS | 3120 | 12400 | 11900 | 9510 | 10100 | 5270 | 2260 | 102 | 532 | 437 | 175
9 | SGKDKKTATGGTPSP | 400 | 354 | 1150 | 542 | 1680 | 175 | 77 | 118 | 195 | 73 | 103
10 | KKPATGETPSQPGAS | 5210 | 35400 | 153 | 238 | 16900 | 467 | 792 | 127 | 186 | 591 | 634
11 | GKDNKTATGETPSPS | 1080 | 4850 | 9980 | 7560 | 10100 | 293 | 314 | 125 | 334 | 289 | 1940
12 | GTEKKPAAGGTPSPP | 161 | 417 | 4490 | 1200 | 1280 | 141 | 979 | 2940 | 226 | 381 | 1630
13 | GKDNKPAAGGAPSQS | 305 | 1320 | 857 | 1070 | 690 | 183 | 305 | 116 | 107 | 102 | 128
14 | PSGKEKKTAAGGTPS | 590 | 5400 | 10600 | 8260 | 6480 | 242 | 211 | 302 | 174 | 208 | 128
15 | GTDNKTAAGGAPSPP | 308 | 22700 | 4750 | 587 | 717 | 278 | 582 | 1870 | 199 | 320 | 180
16 | TENKAATGGAPSQSG | 1100 | 4370 | 532 | 698 | 2970 | 261 | 168 | 218 | 163 | 182 | 200
17 | GTDNKPATGEAPSQP | 41100 | 45500 | 1400 | 245 | 36500 | 779 | 935 | 437 | 152 | 347 | 142
18 | KDKKAAAGGAPSPSG | 234 | 191 | 2070 | 438 | 292 | 123 | 89.6 | 106 | 117 | 87.2 | 102
19 | PPSGTDNKTATGGTP | 35700 | 47000 | 722 | 1970 | 4900 | 614 | 660 | 1650 | 391 | 329 | 264
20 | KDNKAAAGEAPSQPG | 6750 | 34800 | 212 | 186 | 12100 | 387 | 1410 | 152 | 169 | 75 | 115
21 | PPSGTDKKPATGETP | 31900 | 43800 | 9620 | 25100 | 21500 | 411 | 438 | 446 | 608 | 6010 | 379
22 | TEKKPATGGTPSPPG | 839 | 509 | 3430 | 957 | 2000 | 314 | 496 | 1200 | 390 | 260 | 783
23 | PPSGKENKTAAGEAP | 8280 | 5630 | 1390 | 1690 | 5620 | 2570 | 1790 | 333 | 870 | 370 | 331
24 | SGKDKKAATGGTPSQ | 269 | 320 | 793 | 813 | 917 | 152 | 80.4 | 138 | 313 | 82.6 | 129
25 | GKEKKTATGGTPSPS | 276 | 317 | 2000 | 2150 | 2830 | 170 | 89.6 | 113 | 156 | 88.5 | 92.4
26 | TDKKPATGGTPSQPG | 579 | 4600 | 2960 | 760 | 779 | 404 | 616 | 965 | 284 | 445 | 123
27 | KENKAATGEAPSPSG | 8440 | 31600 | 374 | 369 | 23800 | 189 | 180 | 127 | 163 | 94.1 | 192

Row | Sequence | antibody binding signal [1] | antibody binding signal [2] | antibody binding signal [3] | antibody binding signal [4] | antibody binding signal [5] | antibody binding signal [6] | antibody binding signal [7] | antibody binding signal [8] | antibody binding signal [9] | antibody binding signal [10] | antibody binding signal [11]
28 | TENKTAAGEAPSQSG | 16500 | 11500 | 149 | 202 | 8450 | 293 | 163 | 224 | 169 | 235 | 151
29 | KKAATGGTPSQSGAS | 296 | 172 | 259 | 248 | 485 | 273 | 104 | 242 | 300 | 148 | 215
30 | GTDNKAATGEAPSPS | 38600 | 39100 | 265 | 356 | 30200 | 141 | 556 | 1180 | 114 | 120 | 88.2
31 | KKTAAGGAPSQPGAS | 904 | 419 | 4580 | 300 | 271 | 290 | 178 | 126 | 176 | 171 | 246
32 | SGTDKKAATGGTPSP | 870 | 2280 | 5940 | 1310 | 1350 | 304 | 196 | 533 | 1250 | 759 | 203
33 | TPPSGTDNKAAAGEA | 42400 | 48400 | 2100 | 11700 | 11100 | 644 | 512 | 1100 | 161 | 174 | 200
34 | PSGKDKKAAAGGTPS | 596 | 2550 | 9180 | 6520 | 4890 | 127 | 176 | 330 | 119 | 80.1 | 150
35 | SGKDNKTATGEAPSP | 25200 | 15900 | 1920 | 376 | 21400 | 299 | 228 | 179 | 417 | 96.7 | 155
36 | DNKTATGETPSQSGA | 1790 | 7950 | 384 | 171 | 6950 | 96.3 | 218 | 280 | 140 | 155 | 140
37 | SGKEKKTAAGGAPSQ | 267 | 1860 | 6370 | 5450 | 4790 | 153 | 94.1 | 114 | 115 | 139 | 111
38 | STPPSGTDKKAAAGE | 39700 | 38400 | 6380 | 27400 | 8650 | 851 | 191 | 188 | 218 | 2860 | 194
39 | KEKKAAAGEAPSQPG | 7000 | 29700 | 175 | 124 | 8610 | 119 | 97.6 | 104 | 91.3 | 73.6 | 75
40 | SGTDNKTAAGEAPSQ | 13000 | 41100 | 273 | 226 | 7030 | 119 | 691 | 1350 | 178 | 118 | 167
41 | GTDNKTATGGAPSQP | 2530 | 27500 | 796 | 949 | 604 | 330 | 623 | 1850 | 142 | 357 | 187
42 | SGTDNKAAAGGAPSQ | 511 | 46600 | 4520 | 637 | 275 | 181 | 772 | 1760 | 279 | 189 | 328
43 | SGTEKKAATGGAPSQ | 266 | 2490 | 831 | 2290 | 2170 | 493 | 1220 | 126 | 1360 | 233 | 202
44 | PSGTDKKTATGGAPS | 294 | 4130 | 3020 | 2120 | 1740 | 373 | 553 | 129 | 161 | 211 | 249
45 | SGKENKPATGGAPSQ | 2020 | 17900 | 3640 | 4520 | 17400 | 8460 | 4170 | 133 | 212 | 373 | 228
46 | GKDKKTAAGEAPSPS | 199 | 289 | 692 | 722 | 3540 | 172 | 84.6 | 98.5 | 272 | 74.6 | 77.8
47 | GKEKKPAAGGAPSQS | 474 | 1210 | 5810 | 5310 | 4230 | 116 | 109 | 131 | 104 | 79.5 | 294
48 | KTAAGGTPSPPGASS | 200 | 204 | 7970 | 668 | 1140 | 186 | 153 | 494 | 190 | 746 | 179
49 | SGKENKTAAGEAPSQ | 9300 | 19100 | 5710 | 4650 | 18000 | 8450 | 3280 | 192 | 517 | 676 | 219
50 | GKDKKPATGGTPSQS | 414 | 221 | 622 | 811 | 981 | 214 | 135 | 424 | 185 | 157 | 95.4
51 | DNKPATGGAPSQSGA | 13700 | 6340 | 316 | 527 | 2650 | 283 | 903 | 533 | 260 | 244 | 192
52 | GKDKKPATGEAPSPP | 17200 | 39400 | 1350 | 1530 | 33200 | 738 | 292 | 130 | 184 | 97.2 | 116
53 | ISTPPSGTEKKPATG | 5310 | 41000 | 682 | 33800 | 11500 | 1370 | 1480 | 300 | 158 | 191 | 621
54 | SGTDKKPAAGETPSQ | 4550 | 27800 | 9370 | 810 | 2210 | 138 | 281 | 171 | 926 | 3000 | 153
